“And” between values parts separate entries of the source, which are not always exact repeats. Equal values may be shown once. The whole screen tested about 110,000 compounds, of which about 230 (0.21%) showed an effect of 50% or more. The list shows a part of the results.
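Also: 30 min substrate incubation versus DMSO and 10 µM JCP410 controls.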

In the test the target is DPAP1 (Plasmodium falciparum, UniProt Q8IIJ9). Briefly: primary screen, percent inhibition; read by cleavage of a fluorogenic dipeptide substrate; higher = more effect of the substance. The arrangement: species or system P. falciparum D10 trophozoite lysates; single well.
Sequence of DPAP1 (Q8IIJ9 whole entry, looked up): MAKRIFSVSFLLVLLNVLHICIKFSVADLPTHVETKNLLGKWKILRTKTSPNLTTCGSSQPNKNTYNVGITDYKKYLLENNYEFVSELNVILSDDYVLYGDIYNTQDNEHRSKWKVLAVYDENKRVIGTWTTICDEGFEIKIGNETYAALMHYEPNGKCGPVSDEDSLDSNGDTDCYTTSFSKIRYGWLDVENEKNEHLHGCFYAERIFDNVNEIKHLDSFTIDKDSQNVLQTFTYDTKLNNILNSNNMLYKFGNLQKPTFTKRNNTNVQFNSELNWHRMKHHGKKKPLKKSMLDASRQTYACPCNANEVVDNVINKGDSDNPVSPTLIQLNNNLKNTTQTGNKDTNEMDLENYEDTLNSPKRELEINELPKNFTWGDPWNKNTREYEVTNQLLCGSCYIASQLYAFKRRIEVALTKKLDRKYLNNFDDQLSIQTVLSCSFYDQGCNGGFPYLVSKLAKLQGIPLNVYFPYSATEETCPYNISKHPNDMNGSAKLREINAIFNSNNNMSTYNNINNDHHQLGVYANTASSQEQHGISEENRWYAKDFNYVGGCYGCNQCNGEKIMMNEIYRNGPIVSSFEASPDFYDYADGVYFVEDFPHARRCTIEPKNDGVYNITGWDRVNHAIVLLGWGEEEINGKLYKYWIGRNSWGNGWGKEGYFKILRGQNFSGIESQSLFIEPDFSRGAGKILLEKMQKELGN
`CC(=O)Nc1ccc(NC(=O)CSc2nc3ccc(NC(=O)c4ccc(C)cc4)cc3s2)cc1`: the “% Inhibition @ 10 uM” value turned out to be 4.67%. On to `CN(C(=O)CN1C(=O)CN=C(c2ccccc2)c2c1sc1c2CCCC1)C1CCCCC1`, for which the “% Inhibition @ 10 uM” value is recorded as -5.37%. With `CCOc1cc(C2c3c(oc4ccc(F)cc4c3=O)C(=O)N2c2nnc(CC(C)C)s2)ccc1O` (stereo not drawn), the “% Inhibition @ 10 uM” value stood at 32.6%. Turning to `Clc1ccc(Sc2ncnc3sc4c(c23)CCCC4)cc1`, the “% Inhibition @ 10 uM” value is reported as -1.29%.

With `CCC1C(=O)N=C(SCC(=O)Nc2ccccn2)NC1=O` (stereo not drawn), the “% Inhibition @ 10 uM” value is recorded as -7.34%. As for `CCC(C)Nc1sc(S(C)(=O)=O)nc1S(=O)(=O)c1ccc(Cl)cc1` (stereo not drawn), the “% Inhibition @ 10 uM” value is -0.522%. For the compound `CCOC(=O)C1=C(C)N=c2s/c(=C\c3ccccc3)c(=O)n2C1c1ccc(N(C)C)cc1` (stereo not drawn), the “% Inhibition @ 10 uM” value is on record as 3.61%. Consider `Cc1[nH]nc2c1C(c1cc(Cn3cnc4ccccc43)cs1)C(C#N)=C(N)O2` (stereo not drawn), for which the “% Inhibition @ 10 uM” value is -0.0678%. On to `Cc1cc(=O)n2ccc(CN3CCCCC3)c(O)c2n1`, for which the “% Inhibition @ 10 uM” value was 2.38% and 5.2%. In the case of `CC1(C)OC(=O)C(/C=N/CC(=O)O)=C(O)O1`, the “% Inhibition @ 10 uM” value was -5.15%. Next, `CCOc1ccc2nc(NC(=O)c3c(F)cccc3F)sc2c1`: 0.528%; `CCOC(=O)c1cc(S(=O)(=O)NCCc2sccc2C)cn1C`: 3.92%. Take `Cc1ccc(NC(=O)c2ccccc2NC(=O)C2CC=CCC2C(=O)O)cc1` (stereo not drawn): the “% Inhibition @ 10 uM” value was -0.95%. As for `CC(C)C1C(C#N)=C(N)OC2=C1C(=O)CC(C)(C)C2` (stereo not drawn), the figure is -4.33%. As to `COc1ccc(C2=N/C(=C\c3cc(Br)cs3)C(=O)O2)cc1OC`, the “% Inhibition @ 10 uM” value is recorded as -0.48%. With `COc1ccc(C(=O)N2CCN(c3ccccc3)CC2)cc1`, the “% Inhibition @ 10 uM” value is -1.62%. Take `COCCNC(=O)c1ccc(CS(=O)Cc2ccc(C)cc2)o1` (stereo not drawn): the “% Inhibition @ 10 uM” value is listed as 2.03%. As for `Cc1nn(C)cc1C(=O)N1CCN(C(=O)c2ccco2)CC1`, the “% Inhibition @ 10 uM” value was -3.75%.

As for `CC1=C(C(=O)OCc2ccccc2)C(c2cccc(Br)c2)NC(=O)N1` (stereo not drawn), the “% Inhibition @ 10 uM” value amounted to 1.38%. Consider `COc1cccc(OC)c1C(=O)Nc1cccc(C)c1`, for which the “% Inhibition @ 10 uM” value was -1.77%. Take `CN(Cc1ccccc1)Cc1nc(=O)c2ccccc2n1C`: the “% Inhibition @ 10 uM” value was -2.77%. With `CC12CC3(C)CC(N)(C1)CC(C(=O)O)(C2)C3`, the “% Inhibition @ 10 uM” value is 2.36%. With `Cn1c(=O)c2nc(-c3ccccc3)c(O)nc2n(C)c1=O`, the “% Inhibition @ 10 uM” value turned out to be 7.14%. `COc1cc(C2NC(C(=O)O)CS2)ccc1OCc1ccccc1C` (stereo not drawn): the “% Inhibition @ 10 uM” value came out at 2.16%. As for `NC(=O)C1CCN(CC2CC=CCC2)CC1` (stereo not drawn), the figure is -0.603%; as for `O=C(O)CCS(=O)(=O)Cc1cccc(Cl)c1`, -1.99%; as for `CCOc1nc(C)c(/C=C/C(=O)O)c(OCC)n1`, -1.2%. As to `COc1ccc(N(C(C)C(=O)NCc2ccc(Cl)cc2Cl)S(C)(=O)=O)cc1` (stereo not drawn), the “% Inhibition @ 10 uM” value is -0.992%. Consider `O=C(O)C1CC=CCC1C(=O)Nc1ccc(Cl)c(Cl)c1` (stereo not drawn), for which the “% Inhibition @ 10 uM” value is recorded as -5.49%.

As for `O=C1CN(C(=O)/C=C/c2ccccc2)CCN1`, the “% Inhibition @ 10 uM” value is -0.386%. For `CC(C)(C)SCCNC(=O)c1ccc(C2SCC(=O)N2CCc2ccccc2)cc1` (stereo not drawn), the “% Inhibition @ 10 uM” value was -5.1%. As to `CC1=C(C(=O)Nc2ccc(C)cc2)C(c2cccs2)NC(=O)N1C` (stereo not drawn), the “% Inhibition @ 10 uM” value is recorded as -2.35%.

For the compound `COC(=O)c1ccc(CO)nc1`, the “% Inhibition @ 10 uM” value is recorded as -1.77%. For `COc1ccc(-c2nc3s/c(=C\c4ccc(C)o4)c(=O)n3n2)cc1`, the “% Inhibition @ 10 uM” value was 0.487%.

As to `CCOC(=O)C1=C(C)N=c2s/c(=C\c3ccccc3Cl)c(=O)n2C1c1ccc(N(C)C)cc1` (stereo not drawn), the “% Inhibition @ 10 uM” value came out at 1.27%. Regarding `Cc1c2cnn(CC(=O)NCCN3CCOCC3)c(=O)c2c(C)n1Cc1ccccc1Cl`, the “% Inhibition @ 10 uM” value was 1.22%. On to `CCC(Cc1ccccc1)NCc1c(C(=O)O)n(Cc2ccccc2)c2ccccc12` (stereo not drawn), for which the “% Inhibition @ 10 uM” value was 0.0662%. In the case of `CCCCn1cnc2cc(NCc3ccncc3)ccc21`, the “% Inhibition @ 10 uM” value is listed as -4.49%. For `CCOC(=O)N1CCN(C(=O)c2cc(-c3cccs3)[nH]n2)CC1`, the “% Inhibition @ 10 uM” value was -3.53%.

As to `COc1ccc2nc(NC(=O)CCc3nc(-c4ccccc4F)no3)sc2c1`, the “% Inhibition @ 10 uM” value came to 5.1%. For `O=C(C1=C(O)C(=O)N(c2ccc(O)cc2)C1c1cccc(F)c1)c1ccccc1` (stereo not drawn), the “% Inhibition @ 10 uM” value worked out at 1.64%. For `COC(=O)c1ccc(-n2c(C)cc(C(=O)CN3CCC(C)CC3)c2C)cc1`, the “% Inhibition @ 10 uM” value was -2.78%. As to `COCCN1C(=O)C(O)=C(C(=O)c2ccc(OC)cc2C)C1c1ccc(C(C)(C)C)cc1` (stereo not drawn), the “% Inhibition @ 10 uM” value is reported as 3.3%. As for `CCOc1ccccc1C1C2=C(O)CCCC2=Nc2nc3ccccc3n21` (stereo not drawn), the figure is 1.73%. Take `O=C(NC(Cc1ccccc1)C(=O)O)/C(=C/c1ccc2c(c1)OCO2)NC(=O)c1ccco1` (stereo not drawn): the “% Inhibition @ 10 uM” value was determined as 2.3%. As for `N#CCSc1nc(-c2ccccc2)nc2ccc(Cl)cc12`, the “% Inhibition @ 10 uM” value is -5.23%.

For the compound `CCN1CCN(c2ccc(Nc3nc(C)nc4cc(Cl)ccc34)cc2)CC1`, the “% Inhibition @ 10 uM” value was determined as 1.54%. Turning to `Cc1ccc(Nc2nc(-c3ccc(F)cc3)cs2)cc1Cl`, the “% Inhibition @ 10 uM” value was -5.65%. Take `CCOc1ccc2nc(NC(=O)Cn3cccc3)sc2c1`: the “% Inhibition @ 10 uM” value is on record as -7.99%. In the case of `FC(F)(F)c1nc2ccccc2n1Cc1cc(Cl)cc2c1OCOC2`, the “% Inhibition @ 10 uM” value is -0.403%. Regarding `C=CCSc1ncc(Cl)c(C(=O)Nc2sc3c(c2C(N)=O)CCCC3)n1`, the “% Inhibition @ 10 uM” value was -0.946%.

The values are drawn from paper PMC6919601, “Identification of Plasmodium dipeptidyl aminopeptidase allosteric inhibitors by high throughput screening” (PLoS ONE, 2019).
